From PubChem BioAssay AID1508642 (National Center for Advancing Translational Sciences (NCATS), 2021)
About 200 (0.47%) of roughly 43,000 compounds were called active. Roughly 12% stayed inconclusive and do not appear here. Calls follow the shape of the dose curve; as a rule, active = well fitted cell-killing curve with a large enough effect; inconclusive = small, poorly fitted or top-dose-only effect, or effect the other way; inactive = flat fitted curve, though single readings scatter. The list shows a part of the results.

Experiment: Cell viability qHTS assay in S16 Pmp22-F2sN cells; also: nearly all actives have a fitted effect of over 65% in size
Conditions: S16 Pmp22-F2sN Schwann cells (luciferase reporters placed in the Pmp22 gene) viability, CellTiter-Glo, 24 h; series mostly up to 57.5 µM; activity change, negative = cytotoxicity: at the top concentration
How it was run: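 Seed 500-1,000 S16 Pmp22-F2sN cells per well in phenol-red-free DMEM with 10% heat-inactivated FBS; pin-add 23 nL compound; incubate 24 h at 37C; add CellTiter-Glo, wait 15 min protected from light; read luminescence.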
% is scaled to controls: 0 for no effect and ±100 for the full control effect; potency is read from the fitted curve at half-maximal effect.

Row | Compound | activity change, negative = cytotoxicity | Potency
1 | CCOc1ccc(NC(=O)NCc2c(-n3cccc3)sc3c2CCCC3)cc1 | inactive: -0.104% | 
2 | CCOc1ccccc1NC(=O)C(=O)NCCc1sc(-c2cccc(F)c2)nc1C | inactive: 21.7% | 
3 | COc1ccc(-c2cc(C(F)(F)F)nc(S(=O)(=O)CCCC(=O)Nc3cccc(O)c3)n2)cc1OC |  | active: 8.91 µM
4 | CCC(=O)Oc1ccc(/C=C(\C#N)c2nc3ccccc3[nH]2)cc1OC | inactive: -0.0022% | 
5 | CCc1ccc(NCc2cc3cc4c(cc3n(CC(=O)Nc3ccc(C)cc3)c2=O)OCO4)cc1 | inactive: 1.57% | 
6 | COc1ccccc1CNC(=O)CCC(=O)N1CC2CCCN2c2ccccc21 (configuration not stated) | inactive: 1.48% | 
7 | O=C(NCc1ccc2c(c1)CCN2C(=O)c1ccc(F)cc1)c1cc2ccccc2[nH]1 | inactive: -3.31% | 
8 | c1ccc(CNc2nc3c(-c4ccccc4)nnn3c3ccccc23)cc1 | inactive: 1.51% | 
9 | COc1ccc(SCc2cc(=O)c3cc(Cl)ccc3[nH]2)cc1 | inactive: -28.9% | 
10 | Cc1cccc(C)c1OCCn1c(C2CC(=O)N(c3cccc(Cl)c3)C2)nc2ccccc21 (configuration not stated) | inactive: 13.2% | 
11 | COc1cccc(NC(=O)C2CCCN(S(=O)(=O)c3c(C)nn(C)c3C)C2)c1 (configuration not stated) | inactive: -2.38% | 
12 | O=C(Cc1ccc(Cl)cc1)Nc1ccc2nn(-c3ccc(Cl)cc3)nc2c1 | inactive: 13.9% | 
13 | CCn1c(C(=O)NCCc2ccc(OC)c(OC)c2)cc2sc(Cl)cc21 | inactive: -3.82% | 
14 | O=C(Cn1cc(C(=O)c2ccco2)c2ccccc21)Nc1ccc(Br)cc1 | inactive: 0.913% | 
15 | O=C(CSc1ccccc1)N1CCc2c([nH]c3ccccc23)C1c1ccc(F)cc1 (configuration not stated) | inactive: -30% | 
16 | CC1CCN(S(=O)(=O)c2cn(CC(=O)Nc3cccc(C(F)(F)F)c3)c(=O)c3ccccc23)CC1 | inactive: -16.7% | 
17 | CCOC(=O)c1cnn(-c2ccc(C(=O)Nc3cc(OC)c(OC)c(OC)c3)cc2)c1N | inactive: -12% | 
18 | CSc1ncc2c(n1)-c1ccccc1N(Cc1ccc(Cl)cc1)S2(=O)=O | inactive: 7.52% | 
19 | COc1cccc(C(=O)Nc2cccc(C(=O)OCc3cc(=O)n4nc(C5CC5)sc4n3)c2)c1 | inactive: -9.07% | 
20 | Nc1c(-c2nc(-c3cccs3)no2)nnn1-c1ccc(Cl)cc1 | inactive: 4.28% | 
21 | CCCn1c2ccccc2c2cnn(CC(=O)N(C)c3ccc(F)cc3)c(=O)c21 | inactive: 6.52% | 
22 | COc1cccc(CSc2nc3ccccc3c3nc(CCn4c(C)nc5ccccc54)nn23)c1 | inactive: 1.3% | 
23 | CSc1ncc(Cl)c(C(=O)Nc2ccc(NC(C)=O)cc2)n1 | inactive: 2.66% | 
24 | CCCCNc1nc(Oc2ccc(OCC)nn2)nc(N2CCOCC2)n1 | inactive: -2.37% | 

Row | Compound | activity change, negative = cytotoxicity | Potency
25 | COc1cccc(NC(=O)c2ccc3nc(CCc4ccccc4)oc3c2)c1 | inactive: 2.87% | 
26 | COc1ccc(Cl)cc1NC(=O)c1c(NCc2ccc(C)o2)sc2c1CCCCC2 | inactive: 12.9% | 
27 | COc1ccccc1NC(=O)C1=C(C)Nc2c(C(=O)Nc3ccc(F)cc3)cnn2C1c1cccc([N+](=O)[O-])c1 (configuration not stated) | inactive: -23.5% | 
28 | CCCCN(C)c1nc2c(S(=O)(=O)c3ccc(CC)cc3)nnn2c2ccc(Cl)cc12 | inactive: -1% | 
29 | COc1ccc(NC(=O)Cn2c(=O)n(-c3ccc(OC)c(OC)c3)c(=O)c3ccccc32)cc1 | inactive: 8.71% | 
30 | COc1cc(C(CC(=O)NCc2ccc(F)cc2)N2Cc3ccccc3C2=O)cc(OC)c1OC (configuration not stated) | inactive: 0.492% | 
31 | O=C(C1CC1)N1CCc2cc(Br)cc(S(=O)(=O)N3CCN(c4cccc(C(F)(F)F)c4)CC3)c21 | inactive: 11.9% | 
32 | COc1ccc(Cl)cc1C(=O)Nc1sc2c(c1C(=O)OC(C)C)CCCC2 | inactive: -2.28% | 
33 | CCCCOc1ccc(-c2nn(-c3ccccc3)cc2C2NC(=O)NC(C)=C2C(=O)OC)cc1 (configuration not stated) | inactive: -2.32% | 
34 | CCOC(=O)c1ccc(NC(=O)c2c(-c3c(F)cccc3Cl)noc2C)cc1 | inactive: 0.976% | 
35 | CCC(=O)N1CCc2cc(Br)cc(S(=O)(=O)N3CCC(C(=O)NCCCOC(C)C)CC3)c21 | inactive: 0.838% | 
36 | Cc1cccc(N2CCN(c3ncnc4c3nc3n4CCCCC3)CC2)c1C | inactive: 26.3% | 
37 | CCOc1ccc(NC(=O)c2ccc(NC(=O)N3CCSc4ncccc43)cc2)cc1 | inactive: 2.7% | 
38 | COC(=O)c1ccccc1NC(=O)c1ccc(COc2ccccc2Cl)o1 | inactive: 5.98% | 
39 | COc1ccc(C2CC(=O)c3cc(-c4nc(-c5cccc(Cl)c5)cs4)c(=O)[nH]c3C2)cc1OC (configuration not stated) | inactive: 21% | 
40 | Cc1noc(/C=C/c2cccs2)c1S(=O)(=O)N1CCC(C(=O)Nc2ccc(F)c(Cl)c2)CC1 | inactive: -0.175% | 
41 | CC(=O)c1ccc(N2CCN(c3ncnc4c3c(-c3ccccc3)cn4-c3cccc(C)c3)CC2)cc1 | inactive: 0.307% | 
42 | COc1ccc(C(F)(F)F)cc1NC(=O)c1sc2nc(-c3cccs3)ccc2c1N | inactive: -23.1% | 
43 | CCOC(=O)CC(NS(=O)(=O)c1ccc2[nH]c3c(c2c1)CCCC3)c1ccccc1Cl (configuration not stated) | inactive: -2.39% | 
44 | CC(C)OCCCNC(=O)c1ccc2c(c1)N(Cc1c(F)cccc1Cl)C(=O)c1ccccc1S2 | inactive: 12.7% | 
45 | COc1ccc(-c2nn3c(=O)cc(CN4CCN(C(=O)c5ccc(C(C)(C)C)cc5)CC4)nc3s2)cc1 | inactive: 5.07% | 
46 | Cc1ccc(Oc2c(C(F)(F)F)oc3c(CN4CCCCC4C)c(O)ccc3c2=O)cc1 (configuration not stated) | inactive: -2.14% | 
47 | CCOC(=O)c1c(N)n(-c2ccc(C)c(Cl)c2)c2nc3ccccc3nc12 | inactive: 8.6% | 
